These are yes or no findings as the source states them, for the method shown. In cells and extracts the contact can be indirect. Some binding calls cover weakened binding; strength is not graded here. Sequences can lack the tags named with a protein.

Chains of the proteins cited; added tags and fusions are not shown.
UniProt Q7Z434: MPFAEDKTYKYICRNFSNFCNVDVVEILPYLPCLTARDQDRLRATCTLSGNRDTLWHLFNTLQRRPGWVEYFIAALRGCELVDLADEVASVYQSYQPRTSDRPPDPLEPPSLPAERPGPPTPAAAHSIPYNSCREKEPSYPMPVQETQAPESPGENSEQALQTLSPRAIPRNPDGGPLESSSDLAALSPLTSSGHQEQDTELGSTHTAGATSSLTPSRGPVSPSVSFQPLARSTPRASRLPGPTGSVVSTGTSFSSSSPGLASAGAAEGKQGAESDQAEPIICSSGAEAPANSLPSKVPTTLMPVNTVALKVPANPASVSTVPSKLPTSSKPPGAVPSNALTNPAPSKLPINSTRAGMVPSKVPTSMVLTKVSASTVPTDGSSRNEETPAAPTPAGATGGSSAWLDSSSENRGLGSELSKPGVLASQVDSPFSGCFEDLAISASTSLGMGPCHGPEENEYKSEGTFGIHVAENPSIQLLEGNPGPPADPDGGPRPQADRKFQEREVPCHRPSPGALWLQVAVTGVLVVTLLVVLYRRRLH

Holding throughout (test): co-IP
For experiment [1], the target named is T1, TRIM35-V5 (tripartite motif containing 35, V5-tagged) (human) (UniProt Q9UPQ4).
T1 sequence: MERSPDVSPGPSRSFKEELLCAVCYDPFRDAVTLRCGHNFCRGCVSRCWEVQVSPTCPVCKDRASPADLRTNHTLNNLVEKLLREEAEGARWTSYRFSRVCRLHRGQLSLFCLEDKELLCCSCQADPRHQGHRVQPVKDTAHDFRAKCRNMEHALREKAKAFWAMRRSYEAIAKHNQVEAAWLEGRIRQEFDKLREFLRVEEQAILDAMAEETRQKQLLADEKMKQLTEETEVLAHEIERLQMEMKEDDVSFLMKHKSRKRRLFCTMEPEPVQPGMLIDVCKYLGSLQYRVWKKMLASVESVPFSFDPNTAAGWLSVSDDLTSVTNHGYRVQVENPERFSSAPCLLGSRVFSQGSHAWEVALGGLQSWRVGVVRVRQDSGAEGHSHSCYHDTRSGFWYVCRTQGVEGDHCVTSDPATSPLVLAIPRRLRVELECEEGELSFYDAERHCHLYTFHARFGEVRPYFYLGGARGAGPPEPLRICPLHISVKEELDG

For experiment [2], the target named is VISA-Myc (human (ORF amplified from HEK293T or A549 cells)) (UniProt Q7Z434).
Experiment [3] addresses VISA (in HEK293T cells expressing IKKε-Flag, Fig. 5J) (human (endogenous in HEK293T)) (UniProt Q7Z434).

B1: TBK1-Flag (TANK-binding kinase 1, Flag-tagged) (protein, UniProt Q9UHD2 1-729)
chain: MQSTSNHLWLLSDILGQGATANVFRGRHKKTGDLFAIKVFNNISFLRPVDVQMREFEVLKKLNHKNIVKLFAIEEETTTRHKVLIMEFCPCGSLYTVLEEPSNAYGLPESEFLIVLRDVVGGMNHLRENGIVHRDIKPGNIMRVIGEDGQSVYKLTDFGAARELEDDEQFVSLYGTEEYLHPDMYERAVLRKDHQKKYGATVDLWSIGVTFYHAATGSLPFRPFEGPRRNKEVMYKIITGKPSGAISGVQKAENGPIDWSGDMPVSCSLSRGLQVLLTPVLANILEADQEKCWGFDQFFAETSDILHRMVIHVFSLQQMTAHKIYIHSYNTATIFHELVYKQTKIISSNQELIYEGRRLVLEPGRLAQHFPKTTEENPIFVVSREPLNTIGLIYEKISLPKVHPRYDLDGDASMAKAITGVVCYACRIASTLLLYQELMRKGIRWLIELIKDDYNETVHKKTEVVITLDFCIRNIEKTVKVYEKLMKINLEAAELGEISDIHTKLLRLSSSQGTIETSLQDIDSRLSPGGSLADAWAHQEGTHPKDRNVEKLQVLLNCMTEIYYQFKKDKAERRLAYNEEQIHKFDKQKLYYHATKAMTHFTDECVKKYEAFLNKSEEWIRKMLHLRKQLLSLTNQCFDIEEEVSKYQEYTNELQETLPQKMFTASSGIKHTMTPIYPSSNTLVEMTLGMKKLKEEMEGVVKELAENNHILERFGSLTMDGGLRNVDCL
B1: the binding entry in experiment [1] is on record as “no binding”.

B2: IRF3-Flag (interferon regulatory factor 3, Flag-tagged) (protein, UniProt Q14653 1-427)
chain: MGTPKPRILPWLVSQLDLGQLEGVAWVNKSRTRFRIPWKHGLRQDAQQEDFGIFQAWAEATGAYVPGRDKPDLPTWKRNFRSALNRKEGLRLAEDRSKDPHDPHKIYEFVNSGVGDFSQPDTSPDTNGGGSTSDTQEDILDELLGNMVLAPLPDPGPPSLAVAPEPCPQPLRSPSLDNPTPFPNLGPSENPLKRLLVPGEEWEFEVTAFYRGRQVFQQTISCPEGLRLVGSEVGDRTLPGWPVTLPDPGMSLTDRGVMSYVRHVLSCLGGGLALWRAGQWLWAQRLGHCHTYWAVSEELLPNSGHGPDGEVPKDKEGGVFDLGPFIVDLITFTEGSGRSPRYALWFCVGESWPQDQPWTKRLVMVKVVPTCLRALVEMARVGGASSLENTVDLHISNSHPLSLTSDQYKAYLQDLVEGMDFQGPGES
In the case of B2, the binding result in experiment [1] is listed as “no binding”.

B3: IKKε-Flag (IkB kinase-ε, Flag-tagged) (protein, UniProt Q14164 1-716)
chain: MQSTANYLWHTDDLLGQGATASVYKARNKKSGELVAVKVFNTTSYLRPREVQVREFEVLRKLNHQNIVKLFAVEETGGSRQKVLVMEYCSSGSLLSVLESPENAFGLPEDEFLVVLRCVVAGMNHLRENGIVHRDIKPGNIMRLVGEEGQSIYKLTDFGAARELDDDEKFVSVYGTEEYLHPDMYERAVLRKPQQKAFGVTVDLWSIGVTLYHAATGSLPFIPFGGPRRNKEIMYRITTEKPAGAIAGAQRRENGPLEWSYTLPITCQLSLGLQSQLVPILANILEVEQAKCWGFDQFFAETSDILQRVVVHVFSLSQAVLHHIYIHAHNTIAIFQEAVHKQTSVAPRHQEYLFEGHLCVLEPSVSAQHIAHTTASSPLTLFSTAIPKGLAFRDPALDVPKFVPKVDLQADYNTAKGVLGAGYQALRLARALLDGQELMFRGLHWVMEVLQATCRRTLEVARTSLLYLSSSLGTERFSSVAGTPEIQELKAAAELRSRLRTLAEVLSRCSQNITETQESLSSLNRELVKSRDQVHEDRSIQQIQCCLDKMNFIYKQFKKSRMRPGLGYNEEQIHKLDKVNFSHLAKRLLQVFQEECVQKYQASLVTHGKRMRVVHETRNHLRLVGCSVAACNTEAQGVQESLSKLLEELSHQLLQDRAKGAQASPPPIAPYPSPTRKDLLLHMQELCEGMKLLASDLLDNNRIIERLNRVPAPPDV
For B3, the binding entry in experiment [2] and in experiment [3] was “binds” in each case.

Values taken from PMC7719147.
